# From PubChem BioAssay (Tox21)
# Values joined by “and” are separate entries in the source; they are usually repeats but may differ in a detail not shown here. Identical values can stand only once. The inconclusive results got no clear call from the source; some entries with a clear call stand among them for comparison. For part of these data: Where the call is inconclusive, the potency comes from a doubtful curve fit. A structure can be active in one record and inactive in another. Active and inactive are the calls of the source. Unless noted, calls come from the whole dose curve; as a rule, active = well fitted curve in the direction sought with a large enough effect in the repeat runs; inconclusive = weak or mixed curves; inactive = no such curve, though single readings can be large; an effect the other way counts as inactive or inconclusive.
# Columns and labels:
# [1] = qHTS assay to identify small molecule agonists of the estrogen receptor beta (ER-beta) signaling pathway - cell viability counter screen (AID 1259380); note: nearly all actives have a fitted effect of over 30% in size
# In short: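 Viability of ER-beta-UAS-bla HEK293T cells was determined by CellTiter-Glo luminescence following 16 hr treatment with test compounds at 37C.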
# [2] = qHTS assay to identify small molecule antagonists of the estrogen receptor beta (ER-beta) signaling pathway - cell viability counter screen (AID 1259382); note: nearly all actives have a fitted effect of over 55% in size
# In short: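 Tox21 10K library tested in qHTS format on ER-beta-bla HEK293T cells stimulated with 1nM E2; 16 hr treatment at 37C. Same-well CellTiter-Glo luminescence served as the cell viability measure.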
# [3] = target: Progesterone receptor (Homo sapiens) (UniProt P06401); assay: qHTS assay to identify small molecule agonists of the progesterone receptor (PR) signaling pathway (AID 1346784; calls by dose curve; note: nearly all actives have a fitted effect of over 30% in size); settings: PR-UAS-bla HEK293T, beta-lactamase FRET ratio, 16 h; activation: at 92.4 µM (top of the series) unless noted
# UniProt P06401, sequence (P06401 whole entry, looked up): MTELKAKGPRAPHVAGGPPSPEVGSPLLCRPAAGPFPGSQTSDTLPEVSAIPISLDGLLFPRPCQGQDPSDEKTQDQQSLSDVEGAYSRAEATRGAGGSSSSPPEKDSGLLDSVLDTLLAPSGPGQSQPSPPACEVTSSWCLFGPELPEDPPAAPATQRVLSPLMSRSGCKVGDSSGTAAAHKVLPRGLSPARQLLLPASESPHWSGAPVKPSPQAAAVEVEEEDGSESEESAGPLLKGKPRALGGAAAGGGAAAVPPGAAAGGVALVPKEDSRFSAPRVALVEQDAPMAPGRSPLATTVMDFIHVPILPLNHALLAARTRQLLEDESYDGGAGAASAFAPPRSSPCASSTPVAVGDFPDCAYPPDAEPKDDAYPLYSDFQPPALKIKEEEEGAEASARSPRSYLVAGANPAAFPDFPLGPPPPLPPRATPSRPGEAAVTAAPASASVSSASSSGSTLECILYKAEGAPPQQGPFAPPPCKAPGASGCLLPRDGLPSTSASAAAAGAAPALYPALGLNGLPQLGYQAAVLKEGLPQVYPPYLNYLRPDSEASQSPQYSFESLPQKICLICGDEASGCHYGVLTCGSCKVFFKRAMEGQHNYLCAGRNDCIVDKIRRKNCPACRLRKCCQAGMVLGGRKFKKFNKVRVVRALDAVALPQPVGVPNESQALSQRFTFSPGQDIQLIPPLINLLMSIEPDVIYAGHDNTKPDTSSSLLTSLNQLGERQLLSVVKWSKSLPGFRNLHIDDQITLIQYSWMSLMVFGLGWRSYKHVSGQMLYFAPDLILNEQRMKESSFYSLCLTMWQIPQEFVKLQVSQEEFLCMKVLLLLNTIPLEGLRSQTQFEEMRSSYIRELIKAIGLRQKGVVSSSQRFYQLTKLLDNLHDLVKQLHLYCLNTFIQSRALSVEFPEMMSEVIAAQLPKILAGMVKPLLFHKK
# In short: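 PR-UAS-bla HEK 293T cells carrying a UAS-driven beta-lactamase reporter were seeded in medium with 2% charcoal-stripped FBS, preincubated 6 hr at 37C, then exposed to compounds in DMSO for 16 hr; agonism was read by LiveBLAzer B/G FRET fluorescence.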
# [4] = qHTS assay to identify small molecule antagonists of the progesterone receptor (PR) signaling pathway - cell viability counter screen (AID 1346798); note: nearly all actives have a fitted effect of over 50% in size
# In short: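 PR-UAS-bla HEK293T cells in medium with 2% charcoal-stripped FBS were treated with compounds plus R5020 for 16 hr at 37C. Cell viability was then read by CellTiter-Glo luminescence after 30 min at room temperature in the same wells.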
# [5] = qHTS assay to identify small molecule agonists of the progesterone receptor (PR) signaling pathway - cell viability counter screen (AID 1346799; calls by dose curve; note: nearly all actives have a fitted effect of over 45% in size)
# In short: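 PR-UAS-bla HEK293T cells, 3,000 per well in medium with 2% charcoal-stripped FBS, were preincubated 6 hr at 37C, then exposed to compounds for 16 hr; viability was read as CellTiter-Glo luminescence after 30 min at room temperature.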
# [6] = qHTS assay to identify small molecule antagonists of the TGF-beta/Smad signaling pathway - cell viability counter screen (AID 1346824); note: nearly all actives have a fitted effect of over 50% in size
# In short: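 Cytotoxicity counter-screen run in the same wells as the beta-lactamase Smad reporter read: CellTiter-Glo luminescence after 30 min at room temperature. HEK 293T SBE-bla cells had 5 hr compound exposure at 37 C with TGF-beta1 (0.25 ng/mL stock).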
# [7] = qHTS assay to identify small molecule agonists of the TGF-beta/Smad signaling pathway - cell viability counter screen (AID 1346829); note: nearly all actives have a fitted effect of over 45% in size
# In short: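 SBE-bla HEK 293T cells plated overnight, compound exposure 5 hr at 37 C. Viability read in the same wells by CellTiter-Glo luminescence after 30 min at room temperature, following the beta-lactamase read.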
# [8] = qHTS assay to identify small molecule antagonists of the TGF-beta/Smad signaling pathway (AID 1346924; active = well fitted inhibition curve with a large enough effect in the signal ratio in the repeat runs, not every such curve was filed as active; inconclusive = weak or mixed curves; the % refers to the signal ratio); settings: SBE-bla HEK293T, TGF-beta/Smad reporter, beta-lactamase ratio; activity, negative = inhibition: at 76.8 µM (top of the series) unless noted
# In short: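 SBE-bla HEK 293T cells were plated overnight, then received compound in DMSO plus TGF-beta1 (added as a 0.25 ng/mL solution) and were incubated 5 h at 37 C. Beta-lactamase reporter activity was read after 2 h at room temperature with LiveBLAzer B/G FRET substrate (ex 405, em 460/530 nm).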
# [9] = Human pregnane X receptor (PXR) small molecule agonists, qHTS cell viability counter screen (AID 1346977); note: nearly all actives have a fitted effect of over 50% in size
# In short: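 PXR-Luc HepG2 cells in medium with 5% charcoal-stripped FBS were pre-incubated 5hr, then exposed to compounds for 24hr at 37C. Viability was read in the same wells by CellTiter-Fluor fluorescence, reagent added after 23hr with a 1hr incubation.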
# [10] = target: Estrogen receptor (Homo sapiens) (UniProt P03372); assay: qHTS assay to identify small molecule agonists of the estrogen receptor alpha (ER-alpha) signaling pathway in the presence of an antagonist (AID 1259383; calls by dose curve; note: nearly all actives have a fitted effect of over 15% in size)
# UniProt P03372, sequence (P03372 whole entry, looked up): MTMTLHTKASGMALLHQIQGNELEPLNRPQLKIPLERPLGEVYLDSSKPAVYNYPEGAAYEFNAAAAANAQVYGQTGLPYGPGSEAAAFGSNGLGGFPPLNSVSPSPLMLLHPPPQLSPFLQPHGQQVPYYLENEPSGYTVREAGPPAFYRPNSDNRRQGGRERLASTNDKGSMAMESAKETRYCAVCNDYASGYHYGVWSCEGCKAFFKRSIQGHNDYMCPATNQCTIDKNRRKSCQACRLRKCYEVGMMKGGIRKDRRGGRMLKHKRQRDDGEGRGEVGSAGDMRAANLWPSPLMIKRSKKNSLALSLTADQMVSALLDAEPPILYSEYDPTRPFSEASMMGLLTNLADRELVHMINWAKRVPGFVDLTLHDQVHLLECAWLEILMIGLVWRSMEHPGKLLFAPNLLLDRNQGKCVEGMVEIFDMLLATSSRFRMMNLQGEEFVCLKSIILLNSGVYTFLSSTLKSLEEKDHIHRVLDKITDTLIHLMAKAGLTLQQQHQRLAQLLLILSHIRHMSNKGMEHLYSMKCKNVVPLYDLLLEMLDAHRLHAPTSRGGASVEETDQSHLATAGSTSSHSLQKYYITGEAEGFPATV
# In short: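 In VM7Luc4E2 cells, 4,000 per well, compounds at 15 concentrations were co-incubated 22hr at 37C with 10.0nM final ICI-182,780. Luminescence from the stably transfected 4×ERE-luciferase reporter was recorded 30min after ONE-Glo addition.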
# [11] = target: Progesterone receptor (Homo sapiens) (UniProt P06401); assay: qHTS assay to identify small molecule antagonists of the progesterone receptor (PR) signaling pathway (AID 1346795; active = well fitted inhibition curve with a large enough effect in the signal ratio in the repeat runs, not every such curve was filed as active; inconclusive = weak or mixed curves; the % refers to the signal ratio; for activity change, negative = inhibition: % is set by controls: 0 for no effect and ±100 for the full control effect); settings: PR-UAS-bla HEK293T, beta-lactamase FRET ratio, 16 h; activity change, negative = inhibition: at 92.4 µM (top of the series) unless noted
# In short: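 PR-UAS-bla HEK293T cells carrying a UAS-driven beta-lactamase reporter were plated in medium with 2% charcoal-stripped FBS and rested 6 hr at 37C. Compounds were added with 1 nM R5020 (final) for 16 hr, then FRET substrate loaded 2 hr at room temperature.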
# [12] = Caspase-3/7 induction in CHO-K1 cells by small molecules, qHTS cell viability counter screen (AID 1346979); note: nearly all actives have a fitted effect of over 35% in size
# In short: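 Wild-type CHO-K1 cells were seeded at 1,500 per well, rested 5hr at 37 C, then exposed to compounds in DMSO. After 16hr, CellTiter-Fluor reagent was added and fluorescence read 1hr later as the viability measure.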
# [13] = qHTS assay to identify small molecule agonists of the TGF-beta/Smad signaling pathway (AID 1346859; active = well fitted activation curve with a large enough effect in the signal ratio in the repeat runs, not every such curve was filed as active; inconclusive = weak or mixed curves; the % refers to the signal ratio); settings: SBE-bla HEK293T, TGF-beta/Smad beta-lactamase reporter, 5 h; activation: at 76.8 µM (top of the series)
# In short: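 HEK 293T cells stably carrying a beta-lactamase reporter driven by the Smad binding element were seeded overnight, exposed to DMSO-dissolved compounds for 5 hr at 37 C, 5% CO2, then loaded with FRET substrate for 2 hr at room temperature.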
# [14] = Caspase-3/7 induction in CHO-K1 cells by small molecules, qHTS assay (AID 1346980); note: nearly all actives have a fitted effect of over 15% in size
# In short: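 Luminescent Caspase-Glo 3/7 read (30min, room temperature) quantified apoptosis induction. Cells were wild-type CHO-K1, treated with compound for 17hr at 37 C and 5% CO2.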
# [15] = target: Thyrotropin-releasing hormone receptor (Homo sapiens) (UniProt P34981); assay: qHTS assay to identify small molecule antagonists of the thyrotropin-releasing hormone receptor (TRHR) signaling pathway (AID 1346877; active = well fitted inhibition curve with a large enough effect in the repeat runs, not every such curve was filed as active; inconclusive = weak or mixed curves)
# UniProt P34981, sequence (P34981 whole entry, looked up): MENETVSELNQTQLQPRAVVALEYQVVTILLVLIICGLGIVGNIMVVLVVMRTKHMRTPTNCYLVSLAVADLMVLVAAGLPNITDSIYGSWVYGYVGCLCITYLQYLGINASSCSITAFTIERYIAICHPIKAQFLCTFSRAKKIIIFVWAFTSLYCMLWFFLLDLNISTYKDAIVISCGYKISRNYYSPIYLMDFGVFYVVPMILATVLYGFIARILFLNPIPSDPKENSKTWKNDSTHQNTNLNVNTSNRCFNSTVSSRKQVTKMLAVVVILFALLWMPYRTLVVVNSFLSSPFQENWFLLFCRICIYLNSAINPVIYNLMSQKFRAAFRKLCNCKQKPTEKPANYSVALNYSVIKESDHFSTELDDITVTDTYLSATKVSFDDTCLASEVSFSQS
# In short: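 In this cell-based calcium flux format, HEK293 cells expressing TRHR received test compound for 5 min before the agonist TRH (1 nM final). Dye loading lasted 2 h at 37 °C.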
# [16] = Caspase-3/7 induction in HepG2 cells by small molecules, qHTS assay (AID 1346978); note: nearly all actives have a fitted effect of over 15% in size
# In short: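 Caspase-3/7 induction was measured by Caspase-Glo 3/7 luminescence (30 min, room temperature) after a 17 hr compound exposure of wild-type HepG2 cells seeded at 2,000 per well and pre-incubated 5 hr.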
# Potency is the fitted concentration of half-maximal effect; tags give direction and shape of the fitted curve or compound fluorescence and quenching.
compound,measurement,setting,value
C[C@@H]1O[C@@H](O[C@H]2C[C@@H](O)[C@]3(CO)[C@H]4[C@H](O)C[C@]5(C)[C@@H](C6=CC(=O)OC6)CC[C@]5(O)[C@@H]4CC[C@]3(O)C2)[C@H](O)[C@H](O)[C@H]1O,Potency,[1],active: 81.9 nM and active: 94.4 nM
same,Potency,[2],active: 46.1 nM and active: 75 nM
same,Potency,[3],"inconclusive: 0.206 µM [rising, full curve]"
same,Potency,[4],active: 81.9 nM and active: 150 nM
same,Potency,[5],active: 116 nM and active: 168 nM
same,Potency,[6],"inconclusive: 41.4 nM [cytotoxic, full curve] and inconclusive: 213 nM [cytotoxic, full curve]"
same,Potency,[7],"inconclusive: 46.5 nM [cytotoxic, full curve] and inconclusive: 53.5 nM [cytotoxic, full curve]"
same,Potency,[8],"inconclusive: 0.107 µM [rising, full curve]"
same,Potency,[9],"inconclusive: 51.7 nM [cytotoxic, full curve] and inconclusive: 168 nM [cytotoxic, full curve]"
O=c1ssc(Cl)c1Cl,Potency,[1],"inconclusive: 68.6 µM [cytotoxic, single point]"
same,Potency,[2],"inconclusive: 61.1 µM [cytotoxic, partial curve, poor fit]"
same,Potency,[6],"inconclusive: 49 µM [cytotoxic, partial curve]"
ClC(Cl)=C(c1ccc(Cl)cc1)c1ccc(Cl)cc1,Potency,[1],"inconclusive: 70.3 µM [cytotoxic, single point] and inconclusive: 77 µM [cytotoxic, partial curve, poor fit]"
same,Potency,[10],"inconclusive: 62.6 µM [activator, single point]"
same,Potency,[11],active: 6.26 µM
same,"activity change, negative = inhibition",[11],inconclusive: -56.5%
same,Potency,[5],"inconclusive: 70.3 µM [cytotoxic, single point] and active: 61.1 µM"
same,Potency,[9],"inconclusive: 79.4 µM [cytotoxic, partial curve, poor fit]"
same,Potency,[12],"inconclusive: 70.3 µM [cytotoxic, single point] and inactive"
Oc1cc(Cl)ccc1Oc1ccc(Cl)cc1Cl,Potency,[1],active: 39.5 µM and inconclusive: 33.5 µM [cytotoxic]
same,Potency,[2],"inconclusive: 23.7 µM [cytotoxic, partial curve]"
same,Potency,[11],inconclusive: 64.4 µM and active: 13.3 µM
same,Potency,[4],"active: 31.4 µM and inconclusive: 33.5 µM [cytotoxic, single point]"
same,Potency,[5],active: 31.4 µM
same,Potency,[6],"inconclusive: 5.62 µM [cytotoxic, full curve, poor fit]"
same,Potency,[7],active: 39.8 µM
same,Potency,[13],inconclusive: 63.1 µM
same,Potency,[8],"inconclusive: 48.7 µM [falling, partial curve]"
same,"activity, negative = inhibition",[8],inconclusive: -32.1% [at 35.3 µM]
same,Potency,[9],active: 31.4 µM and active: 29.8 µM
same,Potency,[14],active: 59.1 µM
Cc1ccc(N=C=O)cc1N=C=O,Potency,[1],"inconclusive: 62.7 µM [cytotoxic, single point] and active: 34.3 µM and inactive"
same,Potency,[2],"inconclusive: 38.5 µM [cytotoxic, partial curve, poor fit]"
same,Potency,[4],"inconclusive: 3.06 µM [rising, full curve, poor fit]"
same,Potency,[5],"inconclusive: 62.7 µM [cytotoxic, partial curve, poor fit] and inconclusive: 24.3 µM [cytotoxic, full curve, poor fit]"
same,Potency,[7],inactive
CC(C)(c1ccccc1)c1ccc(O)cc1,Potency,[1],"active: 60.6 µM and inconclusive: 68.6 µM [cytotoxic, single point]"
same,Potency,[2],inconclusive: 61.1 µM [cytotoxic]
same,Potency,[11],active: 7.63 µM and active: 9.69 µM
same,Potency,[4],"inconclusive: 76.3 µM [cytotoxic, single point]"
same,Potency,[5],"inconclusive: 76.3 µM [cytotoxic, single point]"
same,Potency,[7],"inconclusive: 49 µM [cytotoxic, single point]"
same,Potency,[15],"inconclusive: 37.6 µM [inhibitor, single point]"
same,"activity, negative = inhibition",[8],inconclusive: -16.5% and inconclusive: -7.97%
same,Potency,[9],"inactive and inconclusive: 68.6 µM [cytotoxic, single point]"
same,Potency,[16],active: 60.6 µM
same,Potency,[12],"inconclusive: 68 µM [cytotoxic] and inconclusive: 68.6 µM [cytotoxic, single point]"
same,Potency,[14],"inconclusive: 54.5 µM [activator, partial curve, poor fit]"
